In the supplement of paper PMC10037445:
Several values for one entry are separate records, joined by “and”; a condition that tells them apart may be missing. Equal entries are not always repeated. The full ranking holds about 2,900 compounds; the median of “NF-kB SEAP reporter activity, fold change vs agonist alone” is about 0.99, and the highest 2% start at about 2.6. Some of the results follow.

Key:
RAW-Dual [1] = assay: NF-kB SEAP reporter activity, fold change vs agonist alone; cytotoxicity flag (confluency mask): not cytotoxic; higher = enhanced NF-kB activity
In short: (§1)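 Library stock was pin-tooled at 50 nL into 384-well plates of RAW-Dual macrophages (50,000 cells/well, DMEM), followed 1 h later by a PRR agonist, and the cells were kept at 37 °C, 5% CO2. Supernatant collected after 20 hours was read for IRF by QuantiLuc luminescence and for NF-κB by QuantiBlue absorbance at 620 nm. Reporter activity is fold change over agonist-alone wells, and a well counted as cytotoxic when its IncuCyte confluency was below 70% of agonist controls in both mask sets.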

RAW-Dual [2] = assay: NF-kB SEAP reporter activity, fold change vs agonist alone; cytotoxicity flag (confluency mask): cytotoxic (confluency <70% of control); higher = enhanced NF-kB activity
In short: as §1

RAW-Dual [3] = assay: NF-kB SEAP reporter activity, fold change vs agonist alone; higher = enhanced NF-kB activity; conditions: library stock concentration (final ~1000-fold dilution): 10 mM
In short: as §1

[4] = agonist: ODN 1826 (TLR9) 0.5 ug/mL
[5] = agonist: Pam2CSK4 (TLR2/6) 0.1 ug/mL
[6] = agonist: Pam3CSK4 (TLR2/1) 0.1 ug/mL
[7] = cytotoxicity flag (confluency mask): cytotoxic (confluency <70% of control), agonist: MPLA (TLR4) […]
[8] = cytotoxicity flag (confluency mask): not cytotoxic, agonist: Imiquimod (TLR7) […]
[9] = cytotoxicity flag (confluency mask): not cytotoxic, agonist: MPLA (TLR4) […]

COc1ccc2cc(C(C)C(=O)O)ccc2c1 (stereo unspecified) (library stock concentration (final ~1000-fold dilution): 10 mM)
NF-kB SEAP reporter activity (RAW-Dual [1]; agonist: LPS (TLR4) 0.1 ug/mL): 1.09 and 0.938
NF-kB SEAP reporter activity (RAW-Dual [1]; [4]): 0.966 and 0.971
NF-kB SEAP reporter activity (RAW-Dual [1]; [5]): 1.1 and 1.26
NF-kB SEAP reporter activity (RAW-Dual [1]; [6]): 0.858 and 1.04

Cc1nccn1CC1CCc2c(c3ccccc3n2C)C1=O.Cl.O.O (stereo unspecified) (library stock concentration (final ~1000-fold dilution): 10 mM)
NF-kB SEAP reporter activity (RAW-Dual [2]; agonist: LPS (TLR4) 0.1 ug/mL): 0.796
NF-kB SEAP reporter activity (RAW-Dual [2]; [4]): 0.803
NF-kB SEAP reporter activity (RAW-Dual [2]; [5]): 0.949
NF-kB SEAP reporter activity (RAW-Dual [2]; [6]): 0.871

Cc1nccn1CC1CCc2c(c3ccccc3n2C)C1=O.Cl.O.O (stereo unspecified)
NF-kB SEAP reporter activity (RAW-Dual [3]; [7]): 0.921

COc1cc(C=CC(=O)OCC[N+](C)(C)C)cc(OC)c1O (library stock concentration (final ~1000-fold dilution): 10 mM)
NF-kB SEAP reporter activity (RAW-Dual [1]; agonist: LPS (TLR4) 0.1 ug/mL): 1.08
NF-kB SEAP reporter activity (RAW-Dual [1]; [4]): 1.04
NF-kB SEAP reporter activity (RAW-Dual [1]; [5]): 1.06
NF-kB SEAP reporter activity (RAW-Dual [1]; [6]): 1.2

COc1cc(C=CC(=O)OCC[N+](C)(C)C)cc(OC)c1O
NF-kB SEAP reporter activity (RAW-Dual [3]; [8]): 0.966
NF-kB SEAP reporter activity (RAW-Dual [3]; [9]): 1.03

Cc1ccc(CN(CC(O)COc2cccc3[nH]ccc23)C(C)(C)C)cc1 (stereo unspecified)
NF-kB SEAP reporter activity (RAW-Dual [3]; cytotoxicity flag (confluency mask): cytotoxic (confluency <70% of control), agonist: Imiquimod (TLR7) […]): 1.58
NF-kB SEAP reporter activity (RAW-Dual [3]; [7]): 1.76

Cc1ccc(CN(CC(O)COc2cccc3[nH]ccc23)C(C)(C)C)cc1 (stereo unspecified) (library stock concentration (final ~1000-fold dilution): 10 mM)
NF-kB SEAP reporter activity (RAW-Dual [2]; agonist: LPS (TLR4) 0.1 ug/mL): 1.63
NF-kB SEAP reporter activity (RAW-Dual [2]; [4]): 1.59
NF-kB SEAP reporter activity (RAW-Dual [2]; [5]): 1.2
NF-kB SEAP reporter activity (RAW-Dual [2]; [6]): 1.79

Cl.Cl.NC1(c2ccc(-c3nc4ccn5c(=O)[nH]nc5c4cc3-c3ccccc3)cc2)CCC1
NF-kB SEAP reporter activity (RAW-Dual [3]; [8]): 1.91
NF-kB SEAP reporter activity (RAW-Dual [3]; [9]): 2.3

Cl.Cl.NC1(c2ccc(-c3nc4ccn5c(=O)[nH]nc5c4cc3-c3ccccc3)cc2)CCC1 (library stock concentration (final ~1000-fold dilution): 10 mM)
NF-kB SEAP reporter activity (RAW-Dual [1]; agonist: LPS (TLR4) 0.1 ug/mL): 0.456
NF-kB SEAP reporter activity (RAW-Dual [1]; [4]): 0.275
NF-kB SEAP reporter activity (RAW-Dual [1]; [5]): 0.812
NF-kB SEAP reporter activity (RAW-Dual [1]; [6]): 0.641

O=c1cc(-c2ccc(O)cc2)oc2cccc(O)c12 (library stock concentration (final ~1000-fold dilution): 10 mM)
NF-kB SEAP reporter activity (RAW-Dual [1]; agonist: LPS (TLR4) 0.1 ug/mL): 1.55
NF-kB SEAP reporter activity (RAW-Dual [1]; [4]): 1.15
NF-kB SEAP reporter activity (RAW-Dual [1]; [5]): 1.09
NF-kB SEAP reporter activity (RAW-Dual [1]; [6]): 1.82

O=c1cc(-c2ccc(O)cc2)oc2cccc(O)c12
NF-kB SEAP reporter activity (RAW-Dual [3]; [8]): 1.07
NF-kB SEAP reporter activity (RAW-Dual [3]; [9]): 1.37

CC(C)c1cc(-c2ccc(F)c3ccccc23)nc(N)n1 (library stock concentration (final ~1000-fold dilution): 10 mM)
NF-kB SEAP reporter activity (RAW-Dual [1]; agonist: LPS (TLR4) 0.1 ug/mL): 1.32
NF-kB SEAP reporter activity (RAW-Dual [1]; [4]): 1.15
NF-kB SEAP reporter activity (RAW-Dual [1]; [5]): 1.15
NF-kB SEAP reporter activity (RAW-Dual [1]; [6]): 1.38

CC(C)c1cc(-c2ccc(F)c3ccccc23)nc(N)n1
NF-kB SEAP reporter activity (RAW-Dual [3]; [8]): 1.16
NF-kB SEAP reporter activity (RAW-Dual [3]; [9]): 0.967

Cc1cc(C)c(/C=C2\C(=O)Nc3ccccc32)[nH]1 (library stock concentration (final ~1000-fold dilution): 10 mM)
NF-kB SEAP reporter activity (RAW-Dual [1]; agonist: LPS (TLR4) 0.1 ug/mL): 0.837
NF-kB SEAP reporter activity (RAW-Dual [1]; [4]): 0.52
NF-kB SEAP reporter activity (RAW-Dual [1]; [5]): 0.562
NF-kB SEAP reporter activity (RAW-Dual [1]; [6]): 0.426

Cc1cc(C)c(/C=C2\C(=O)Nc3ccccc32)[nH]1
NF-kB SEAP reporter activity (RAW-Dual [3]; [8]): 0.587
NF-kB SEAP reporter activity (RAW-Dual [3]; [9]): 0.685

CN1CCC(=C2c3ccccc3CC(=O)c3sccc32)CC1.O=C(O)/C=C/C(=O)O (library stock concentration (final ~1000-fold dilution): 10 mM)
NF-kB SEAP reporter activity (RAW-Dual [1]; agonist: LPS (TLR4) 0.1 ug/mL): 1.23
NF-kB SEAP reporter activity (RAW-Dual [1]; [4]): 0.501
NF-kB SEAP reporter activity (RAW-Dual [1]; [5]): 1.01
NF-kB SEAP reporter activity (RAW-Dual [1]; [6]): 1.01

CN1CCC(=C2c3ccccc3CC(=O)c3sccc32)CC1.O=C(O)/C=C/C(=O)O
NF-kB SEAP reporter activity (RAW-Dual [3]; [8]): 1.02
NF-kB SEAP reporter activity (RAW-Dual [3]; [9]): 1.1

O=c1cc(O)c(Cl)c[nH]1 (library stock concentration (final ~1000-fold dilution): 10 mM)
NF-kB SEAP reporter activity (RAW-Dual [1]; agonist: LPS (TLR4) 0.1 ug/mL): 1
NF-kB SEAP reporter activity (RAW-Dual [1]; [4]): 1.06
NF-kB SEAP reporter activity (RAW-Dual [1]; [5]): 0.973
NF-kB SEAP reporter activity (RAW-Dual [1]; [6]): 1.03

O=c1cc(O)c(Cl)c[nH]1
NF-kB SEAP reporter activity (RAW-Dual [3]; [8]): 1.07
NF-kB SEAP reporter activity (RAW-Dual [3]; [9]): 1.01

COc1ccccc1OCCN.Cl
NF-kB SEAP reporter activity (RAW-Dual [3]; [8]): 0.984
NF-kB SEAP reporter activity (RAW-Dual [3]; [9]): 1.08

COc1ccccc1OCCN.Cl (library stock concentration (final ~1000-fold dilution): 10 mM)
NF-kB SEAP reporter activity (RAW-Dual [1]; agonist: LPS (TLR4) 0.1 ug/mL): 0.978
NF-kB SEAP reporter activity (RAW-Dual [1]; [4]): 0.988
NF-kB SEAP reporter activity (RAW-Dual [1]; [5]): 0.94
NF-kB SEAP reporter activity (RAW-Dual [1]; [6]): 1.13

N#Cc1cc(-c2n[nH]c(-c3ccncc3)n2)ccn1
NF-kB SEAP reporter activity (RAW-Dual [3]; [8]): 1.03
NF-kB SEAP reporter activity (RAW-Dual [3]; [9]): 1.03

N#Cc1cc(-c2n[nH]c(-c3ccncc3)n2)ccn1 (library stock concentration (final ~1000-fold dilution): 10 mM)
NF-kB SEAP reporter activity (RAW-Dual [1]; agonist: LPS (TLR4) 0.1 ug/mL): 1.09
NF-kB SEAP reporter activity (RAW-Dual [1]; [4]): 1.05
NF-kB SEAP reporter activity (RAW-Dual [1]; [5]): 1.12
NF-kB SEAP reporter activity (RAW-Dual [1]; [6]): 1.19

Cc1c(F)cc(C(=O)NC2CC2)cc1-c1ccc(C(=O)NCC(C)(C)C)cn1
NF-kB SEAP reporter activity (RAW-Dual [3]; [8]): 0.854
NF-kB SEAP reporter activity (RAW-Dual [3]; [9]): 1.7

Cc1c(F)cc(C(=O)NC2CC2)cc1-c1ccc(C(=O)NCC(C)(C)C)cn1 (library stock concentration (final ~1000-fold dilution): 10 mM)
NF-kB SEAP reporter activity (RAW-Dual [1]; agonist: LPS (TLR4) 0.1 ug/mL): 1.44
NF-kB SEAP reporter activity (RAW-Dual [1]; [4]): 0.852
NF-kB SEAP reporter activity (RAW-Dual [1]; [5]): 0.455
NF-kB SEAP reporter activity (RAW-Dual [1]; [6]): 0.538

CNC(=O)C(Cc1c[nH]c2ccccc12)NC(=O)C(CC(=O)NO)CC(C)C (stereo unspecified) (library stock concentration (final ~1000-fold dilution): 10 mM)
NF-kB SEAP reporter activity (RAW-Dual [1]; agonist: LPS (TLR4) 0.1 ug/mL): 0.932
NF-kB SEAP reporter activity (RAW-Dual [1]; [4]): 0.999
NF-kB SEAP reporter activity (RAW-Dual [1]; [5]): 1.03
NF-kB SEAP reporter activity (RAW-Dual [1]; [6]): 1.01

CNC(=O)C(Cc1c[nH]c2ccccc12)NC(=O)C(CC(=O)NO)CC(C)C (stereo unspecified)
NF-kB SEAP reporter activity (RAW-Dual [3]; [8]): 1.04
NF-kB SEAP reporter activity (RAW-Dual [3]; [9]): 1.23
